Results are given in words; binding and its absence hold for the method and conditions named. Binding seen in cells or lysates may run through a third protein. Some binding calls cover weakened binding; strength is not graded here. Sequences can lack the tags named with a protein.
T1: cYFP-TIR1 (Arabidopsis thaliana) (UniProt Q570C0)
T1 sequence: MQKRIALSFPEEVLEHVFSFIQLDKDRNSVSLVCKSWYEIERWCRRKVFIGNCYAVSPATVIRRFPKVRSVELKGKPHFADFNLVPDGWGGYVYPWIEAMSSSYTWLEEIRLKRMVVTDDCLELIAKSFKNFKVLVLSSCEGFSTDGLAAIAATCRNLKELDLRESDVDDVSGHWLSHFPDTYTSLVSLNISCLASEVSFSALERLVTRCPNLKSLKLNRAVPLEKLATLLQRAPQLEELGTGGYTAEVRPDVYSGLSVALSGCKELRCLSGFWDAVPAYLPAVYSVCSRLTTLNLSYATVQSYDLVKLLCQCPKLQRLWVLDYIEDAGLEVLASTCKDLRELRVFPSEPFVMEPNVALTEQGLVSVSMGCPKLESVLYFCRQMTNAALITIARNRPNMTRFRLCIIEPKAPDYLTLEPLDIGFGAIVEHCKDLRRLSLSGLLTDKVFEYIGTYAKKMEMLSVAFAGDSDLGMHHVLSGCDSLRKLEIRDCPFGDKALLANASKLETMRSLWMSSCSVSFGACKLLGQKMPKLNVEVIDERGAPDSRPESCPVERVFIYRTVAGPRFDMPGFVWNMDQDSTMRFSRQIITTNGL

Protein sequences, listed by entry. Tags and fused reporters are not part of them.
UniProt P05804: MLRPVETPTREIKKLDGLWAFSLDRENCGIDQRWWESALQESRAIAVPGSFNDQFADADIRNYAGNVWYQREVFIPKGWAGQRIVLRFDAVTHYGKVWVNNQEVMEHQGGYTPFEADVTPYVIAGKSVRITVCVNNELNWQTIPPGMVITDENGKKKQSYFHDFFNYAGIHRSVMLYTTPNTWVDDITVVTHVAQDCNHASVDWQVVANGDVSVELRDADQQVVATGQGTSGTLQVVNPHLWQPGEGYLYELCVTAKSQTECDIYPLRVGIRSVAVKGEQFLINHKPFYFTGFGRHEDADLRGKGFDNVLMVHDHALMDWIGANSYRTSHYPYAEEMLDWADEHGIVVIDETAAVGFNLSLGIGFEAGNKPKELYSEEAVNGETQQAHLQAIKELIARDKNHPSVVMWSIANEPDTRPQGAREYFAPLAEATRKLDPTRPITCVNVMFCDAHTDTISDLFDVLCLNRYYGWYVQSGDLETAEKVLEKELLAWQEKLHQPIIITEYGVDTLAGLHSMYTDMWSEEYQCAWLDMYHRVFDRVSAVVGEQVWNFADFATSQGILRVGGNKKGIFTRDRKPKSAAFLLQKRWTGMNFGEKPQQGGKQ

T2: IAA8-cYFP (Arabidopsis thaliana) (UniProt Q38826)
T2 sequence: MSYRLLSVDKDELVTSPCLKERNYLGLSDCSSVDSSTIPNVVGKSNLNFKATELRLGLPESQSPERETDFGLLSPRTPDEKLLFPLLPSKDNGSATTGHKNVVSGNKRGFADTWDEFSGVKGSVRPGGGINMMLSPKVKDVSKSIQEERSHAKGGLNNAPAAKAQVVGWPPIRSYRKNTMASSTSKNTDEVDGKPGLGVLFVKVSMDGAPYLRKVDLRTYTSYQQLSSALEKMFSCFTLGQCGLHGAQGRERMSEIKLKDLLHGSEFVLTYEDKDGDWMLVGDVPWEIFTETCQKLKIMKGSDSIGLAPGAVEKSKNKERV

T3: IAA8-cYFP (Arabidopsis thaliana), Q38826
T3 chain: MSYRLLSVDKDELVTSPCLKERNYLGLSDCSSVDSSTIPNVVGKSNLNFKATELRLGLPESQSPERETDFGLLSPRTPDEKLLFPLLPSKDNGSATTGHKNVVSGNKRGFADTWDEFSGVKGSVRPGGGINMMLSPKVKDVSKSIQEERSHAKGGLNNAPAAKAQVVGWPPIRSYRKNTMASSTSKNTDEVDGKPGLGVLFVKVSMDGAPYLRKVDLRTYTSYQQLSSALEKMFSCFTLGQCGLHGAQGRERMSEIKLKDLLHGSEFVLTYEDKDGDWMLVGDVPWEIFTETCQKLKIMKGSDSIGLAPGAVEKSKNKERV


Tests used:
[1] = molecular target: T1, cYFP-TIR1 (Arabidopsis thaliana); assay: split reporter; BiFC; nYFP fusions and cYFP-TIR1 transiently co-expressed in Arabidopsis mesophyll protoplasts with NLS-tdTomato; 10 uM IAA added 30-60 min before confocal microscopy, 20-24 h after transfection
[2] = molecular target: T2, IAA8-cYFP (Arabidopsis thaliana); assay: split reporter; BiFC; ARF-nYFP fusions or nYFP-GUS and IAA8-cYFP transiently co-expressed in Arabidopsis mesophyll protoplasts with NLS-tdTomato; confocal microscopy 20-24 h after transfection
[3] = molecular target: T3, IAA8-cYFP (Arabidopsis thaliana), Q38826; assay: as above; details: remark: other sources report otherwise

Molecule	binding [1]	binding [2]	binding [3]
ARF11-nYFP, Q9ZPY6 1-622 (protein) MSQTSLEPLIISIIKLQILQLWLKLIAVGWNLGSNDDELYTELWKACAGPLVEVPRYGERVFYFPQGHMEQLVASTNQGVVDQEIPVFNLPPKILCRVLSVTLKAEHETDEVYAQITLQPEEDQSEPTSLDPPLVEPAKPTVDSFVKILTASDTSTHGGFSVLRKHATECLPSLDMTQPTPTQELVARDLHGYEWRFKHIFRGQPRRHLLTTGWSTFVTSKRLVAGDAFVFLRGETGDLRVGVRRLAKQQSTMPASVISSQSMRLGVLATASHAVTTTTIFVVFYKPRISQFIISVNKYMMAMKNGFSLGMRYRMRFEGEESPERIFTGTIIGSGDLSSQWPASKWRSLQIQWDEPSSIQRPNKVSPWEIEPFSPSALTPTPTQQQSKSKRSRPISEITGSPVASSFLSSFSQSHESNPSVKLLFQDPATERNSNKSVFSSGLQCKITEAPVTSSCRLFGFDLTSKPASATIPHDKQLISVDSNISDSTTKCQDPNSSNSPKEQKQQTSTRSRIKVQMQGTAVGRAVDLTLLRSYDELIKELEKMFEIEGELSPKDKWAIVFTDDEGDRMLVGDDPWNEFCKMAKKLFIYPSDEVKKMRSKSLLGDKGTIVNLESDQRTVHV	–	–	binds
ARF4-nYFP (protein, UniProt Q9ZTX9 1-788) MEFDLNTEIAEVEEEENDDVGVGVGGGTRIDKGRLGISPSSSSSCSSGSSSSSSSTGSASSIYSELWHACAGPLTCLPKKGNVVVYFPQGHLEQDAMVSYSSPLEIPKFDLNPQIVCRVVNVQLLANKDTDEVYTQVTLLPLQEFSMLNGEGKEVKELGGEEERNGSSSVKRTPHMFCKTLTASDTSTHGGFSVPRRAAEDCFAPLDYKQQRPSQELIAKDLHGVEWKFRHIYRGQPRRHLLTTGWSIFVSQKNLVSGDAVLFLRDEGGELRLGIRRAARPRNGLPDSIIEKNSCSNILSLVANAVSTKSMFHVFYSPRATHAEFVIPYEKYITSIRSPVCIGTRFRMRFEMDDSPERRCAGVVTGVCDLDPYRWPNSKWRCLLVRWDESFVSDHQERVSPWEIDPSVSLPHLSIQSSPRPKRPWAGLLDTTPPGNPITKRGGFLDFEESVRPSKVLQGQENIGSASPSQGFDVMNRRILDFAMQSHANPVLVSSRVKDRFGEFVDATGVNPACSGVMDLDRFPRVLQGQEICSLKSFPQFAGFSPAAAPNPFAYQANKSSYYPLALHGIRSTHVPYQNPYNAGNQSSGPPSRAINFGEETRKFDAQNEGGLPNNVTADLPFKIDMMGKQKGSELNMNASSGCKLFGFSLPVETPASKPQSSSKRICTKVHKQGSQVGRAIDLSRLNGYDDLLMELERLFNMEGLLRDPEKGWRILYTDSENDMMVVGDDPWHDFCNVVWKIHLYTKEEVENANDDNKSCLEQAALMMEASKSSSVSQPDSSPTITRV	–	binds	–
ARF5-nYFP (protein, UniProt P93024 1-902) MMASLSCVEDKMKTSCLVNGGGTITTTTSQSTLLEEMKLLKDQSGTRKPVINSELWHACAGPLVCLPQVGSLVYYFSQGHSEQVAVSTRRSATTQVPNYPNLPSQLMCQVHNVTLHADKDSDEIYAQMSLQPVHSERDVFPVPDFGMLRGSKHPTEFFCKTLTASDTSTHGGFSVPRRAAEKLFPPLDYSAQPPTQELVVRDLHENTWTFRHIYRGQPKRHLLTTGWSLFVGSKRLRAGDSVLFIRDEKSQLMVGVRRANRQQTALPSSVLSADSMHIGVLAAAAHATANRTPFLIFYNPRACPAEFVIPLAKYRKAICGSQLSVGMRFGMMFETEDSGKRRYMGTIVGISDLDPLRWPGSKWRNLQVEWDEPGCNDKPTRVSPWDIETPESLFIFPSLTSGLKRQLHPSYFAGETEWGSLIKRPLIRVPDSANGIMPYASFPSMASEQLMKMMMRPHNNQNVPSFMSEMQQNIVMGNGGLLGDMKMQQPLMMNQKSEMVQPQNKLTVNPSASNTSGQEQNLSQSMSAPAKPENSTLSGCSSGRVQHGLEQSMEQASQVTTSTVCNEEKVNQLLQKPGASSPVQADQCLDITHQIYQPQSDPINGFSFLETDELTSQVSSFQSLAGSYKQPFILSSQDSSAVVLPDSTNSPLFHDVWDTQLNGLKFDQFSPLMQQDLYASQNICMSNSTTSNILDPPLSNTVLDDFCAIKDTDFQNHPSGCLVGNNNTSFAQDVQSQITSASFADSQAFSRQDFPDNSGGTGTSSSNVDFDDCSLRQNSKGSSWQKIATPRVRTYTKVQKTGSVGRSIDVTSFKDYEELKSAIECMFGLEGLLTHPQSSGWKLVYVDYESDVLLVGDDPWEEFVGCVRCIRILSPTEVQQMSEEGMKLLNSAGINDLKTSVS	–	binds	–

Results, then the molecule that gave them:

binding [1]	binding [2]	binding [3]	Molecule
no binding	no binding	–	nYFP-GUS (from UniProt P05804 1-603) (enzyme)
–	binds	–	ARF19-nYFP (protein, UniProt Q8RYC8 1-1086) MKAPSNGFLPSSNEGEKKPINSQLWHACAGPLVSLPPVGSLVVYFPQGHSEQVAASMQKQTDFIPNYPNLPSKLICLLHSVTLHADTETDEVYAQMTLQPVNKYDREALLASDMGLKLNRQPTEFFCKTLTASDTSTHGGFSVPRRAAEKIFPPLDFSMQPPAQEIVAKDLHDTTWTFRHIYRGQPKRHLLTTGWSVFVSTKRLFAGDSVLFVRDEKSQLMLGIRRANRQTPTLSSSVISSDSMHIGILAAAAHANANSSPFTIFFNPRASPSEFVVPLAKYNKALYAQVSLGMRFRMMFETEDCGVRRYMGTVTGISDLDPVRWKGSQWRNLQVGWDESTAGDRPSRVSIWEIEPVITPFYICPPPFFRPKYPRQPGMPDDELDMENAFKRAMPWMGEDFGMKDAQSSMFPGLSLVQWMSMQQNNPLSGSATPQLPSALSSFNLPNNFASNDPSKLLNFQSPNLSSANSQFNKPNTVNHISQQMQAQPAMVKSQQQQQQQQQQHQHQQQQLQQQQQLQMSQQQVQQQGIYNNGTIAVANQVSCQSPNQPTGFSQSQLQQQSMLPTGAKMTHQNINSMGNKGLSQMTSFAQEMQFQQQLEMHNSSQLLRNQQEQSSLHSLQQNLSQNPQQLQMQQQSSKPSPSQQLQLQLLQKLQQQQQQQSIPPVSSSLQPQLSALQQTQSHQLQQLLSSQNQQPLAHGNNSFPASTFMQPPQIQVSPQQQGQMSNKNLVAAGRSHSGHTDGEAPSCSTSPSANNTGHDNVSPTNFLSRNQQQGQAASVSASDSVFERASNPVQELYTKTESRISQGMMNMKSAGEHFRFKSAVTDQIDVSTAGTTYCPDVVGPVQQQQTFPLPSFGFDGDCQSHHPRNNLAFPGNLEAVTSDPLYSQKDFQNLVPNYGNTPRDIETELSSAAISSQSFGIPSIPFKPGCSNEVGGINDSGIMNGGGLWPNQTQRMRTYTKVQKRGSVGRSIDVTRYSGYDELRHDLARMFGIEGQLEDPLTSDWKLVYTDHENDILLVGDDPWEEFVNCVQNIKILSSVEVQQMSLDGDLAAIPTTNQACSETDSGNAWKVHYEDTSAAASFNR
–	binds	–	ARF16-nYFP (protein, UniProt Q93YR9 1-670) MINVMNPMKGGTEKGLDPQLWHACAGGMVRMPPMNSKVFYFPQGHAENAYDCVDFGNLPIPPMVLCRVLAIKYMADAESDEVFAKLRLIPLKDDEYVDHEYGDGEDSNGFESNSEKTPSFAKTLTQSDANNGGGFSVPRYCAETIFPRLDYNAEPPVQTILAKDVHGDVWKFRHIYRGTPRRHLLTTGWSNFVNQKKLVAGDSIVFMRAENGDLCVGIRRAKRGGIGNGPEYSAGWNPIGGSCGYSSLLREDESNSLRRSNCSLADRKGKVTAESVIEAATLAISGRPFEVVYYPRASTSEFCVKALDARAAMRIPWCSGMRFKMAFETEDSSRISWFMGTVSAVNVSDPIRWPNSPWRLLQVAWDEPDLLQNVKRVNPWLVELVSNVHPIPLTSFSPPRKKMRLPQHPDYNNLINSIPVPSFPSNPLIRSSPLSSVLDNVPVGLQGARHNAHQYYGLSSSDLHHYYLNRPPPPPPPSSLQLSPSLGLRNIDTKNEKGFCFLTMGTTPCNDTKSKKSHIVLFGKLILPEEQLSEKGSTDTANIEKTQISSGGSNQNGVAGREFSSSDEGSPCSKKVHDASGLETGHCKVFMESDDVGRTLDLSVLGSYEELSRKLSDMFGIKKSEMLSSVLYRDASGAIKYAGNEPFSEFLKTARRLTILTEQGSESVVV
